Experimental data: the supplement of paper PMC4166925
± gives the standard deviation of the averaged measurements. Whole data set: some 33,000 sequences, median “E-score (dimensionless, -0.5 to 0.5)” near -0.046, cut for the highest 2% near 0.36. The list shows a part of the results.

Each sequence was assayed on T1, SpTbr T-box DNA-binding domain (GST fusion) (assay: PBM E-score of 8-mer (E-score (dimensionless, -0.5 to 0.5)); Tbr is Tbrain of the sea star Patiria miniata (Pm) or the sea urchin Strongylocentrotus purpuratus (Sp); higher = stronger binding preference; most listed sequences are background and not binding sites). Settings: the construct has about 5 more residues each side.
T1 sequence: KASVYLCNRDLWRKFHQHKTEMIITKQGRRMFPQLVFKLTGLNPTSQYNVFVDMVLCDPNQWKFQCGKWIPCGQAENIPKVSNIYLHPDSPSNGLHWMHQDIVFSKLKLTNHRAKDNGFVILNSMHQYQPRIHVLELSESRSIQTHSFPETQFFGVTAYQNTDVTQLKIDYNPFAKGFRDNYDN
Experimental: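 Universal protein-binding microarray (Agilent AMADID 016060, 60-bp probes with a 35-bp variable region) incubated with 200 nM GST-fused Strongylocentrotus purpuratus Tbr T-box DNA-binding domain (residues 362-554) in PBS pH 7.5. Scored for every ungapped 8-mer (given with its reverse complement) as E-score (range -0.5 to 0.5; >0.45 counts as bound) and Z-score of median probe intensity. Two replicate arrays (datasets 1 and 2).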
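Note: protein at 200 nM in PBS on universal double-stranded arrays.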

Row | Sequence | PBM E-score of 8-mer
1 | CAGATCAG | -0.0587 ± 0.00064
2 | AAAGCGCC | 0.00788 ± 0.0018
3 | CGTTCCTA | 0.0158 ± 0.031
4 | AAATGAAT | -0.0995 ± 0.085
5 | AGATAATA | 0.00791 ± 0.037
6 | AGAGAAAT | -0.0136 ± 0.08
7 | AAACGTGG | 0.144 ± 0.0096
8 | GAGGTGCA | 0.338 ± 0.032
9 | AGGATCCC | -0.0944 ± 0.12
10 | GCTCCTAA | -0.131 ± 0.044
11 | ACACGCAG | 0.208 ± 0.027
12 | GGGATAAA | -0.0607 ± 0.059
13 | GGTCAAAC | -0.151 ± 0.025
14 | CCCTCGCA | 0.221 ± 0.12
15 | GCAACTGA | 0.1197 ± 0.0011
16 | GTCGGAAC | -0.0533 ± 0.0063
17 | GCTCAGAA | -0.179 ± 0.023
18 | CCTTTTGC | 0.00317 ± 0.048
19 | ACTTTAAG | -0.0154 ± 0.043
20 | ACGCCTGC | 0.249 ± 0.028
21 | GCATCCGC | -0.00856 ± 0.1
22 | AAACAGAA | -0.0348 ± 0.034
23 | CCTCACTA | 0.151 ± 0.0033
24 | ATCGGCCC | -0.34 ± 0.035
25 | TATTAGGA | -0.165 ± 0.018

Row | Sequence | PBM E-score of 8-mer
26 | CGGCGTAA | -0.0713 ± 0.059
27 | CTCATACA | 0.104 ± 0.011
28 | AATTCCAA | 0.00919 ± 0.054
29 | CTTCCAGA | -0.22 ± 0.011
30 | GCATGTGA | 0.122 ± 0.046
31 | GACATGCA | -0.0897 ± 0.028
32 | ATGGGTCG | -0.0984 ± 0.0057
33 | GTCGCATA | 0.0477 ± 0.0084
34 | CGACAGCA | 0.0974 ± 0.024
35 | AGGCCTTC | -0.121 ± 0.03
36 | CGACCTTC | 0.122 ± 0.0086
37 | ACCTGAGT | 0.087 ± 0.042
38 | AGATACAG | -0.179 ± 0.049
39 | GATCTCGA | 0.099 ± 0.0094
40 | ACTGGCAG | 0.0387 ± 0.075
41 | AGGACGAT | -0.225 ± 0.011
42 | GGACGGTA | -0.271 ± 0.032
43 | AGGAACCG | -0.0276 ± 0.015
44 | CACGCGAC | 0.295 ± 0.035
45 | CGCGCATA | 0.178 ± 0.011
46 | ATCGGAAT | -0.00592 ± 0.013
47 | CCTCTGGA | -0.0301 ± 0.041
48 | ACATAAGG | -0.2225 ± 0.00057
49 | GCCTGTCA | 0.243 ± 0.048
50 | AACTGACG | 0.105 ± 0.021

Row | Sequence | PBM E-score of 8-mer
51 | CCGTTCGC | 0.349 ± 0.012
52 | AGTTGAAG | -0.195 ± 0.022
53 | CCGCAGCC | -0.128 ± 0.032
54 | CACATAAC | 0.233 ± 0.043
55 | ACACCCTA | 0.371 ± 0.01
56 | AAGCAACC | 0.0517 ± 0.038
57 | GGTTACTA | -0.2073 ± 0.00022
58 | AACACATC | 0.375 ± 0.012
59 | ATCCGACG | -0.137 ± 0.095
60 | AGAGCGCT | -0.111 ± 0.021
61 | GCGACGAA | 0.295 ± 0.022
62 | ACGTAAAA | -0.201 ± 0.042
63 | CCTTTAAA | -0.178 ± 0.04
64 | AAGCAATG | -0.00317 ± 0.014
65 | TAAGGCTA | -0.149 ± 0.077
66 | AAGAGATT | -0.0725 ± 0.01
67 | CCGCACGC | 0.255 ± 0.036
68 | ACCTTACA | 0.262 ± 0.031
69 | CCCTTGTC | -0.167 ± 0.083
70 | GGAGATAA | 0.0448 ± 0.047
71 | ATAGTGCC | -0.121 ± 0.013
72 | AGAGGATG | 0.125 ± 0.024
73 | AACACAGG | 0.118 ± 0.038
74 | ACCTCACG | 0.239 ± 0.005
75 | CTAATGCC | 0.128 ± 0.016

Row | Sequence | PBM E-score of 8-mer
76 | GGTATCGA | -0.00159 ± 0.015
77 | CGTGAACC | 0.353 ± 0.018
78 | AGTTCGAA | -0.189 ± 0.083
79 | CTTCGGTA | -0.0964 ± 0.027
80 | GCCTCTTA | -0.149 ± 0.037
81 | GTAACAAA | 0.105 ± 0.062
82 | CACTGACC | -0.0548 ± 0.045
83 | CTCTCAAC | 0.171 ± 0.04
84 | CGATTACC | -0.102 ± 0.044
85 | AGGCTAAG | -0.147 ± 0.071
86 | AGACAAAT | -0.106 ± 0.047
87 | CTTCGCTA | -0.0135 ± 0.042
88 | TCAGAGAA | -0.03 ± 0.083
89 | ACCGTATC | -0.0796 ± 0.019
90 | CATATAAG | -0.177 ± 0.021
91 | CTTCATAA | 0.0913 ± 0.004
92 | CCACTAGG | -0.0743 ± 0.13
93 | AATACCGC | -0.00703 ± 0.016
94 | ACTTCCAT | 0.00469 ± 0.14
95 | GGGTCCTA | -0.271 ± 0.0097
96 | CATTGACC | -0.129 ± 0.0056
97 | CGACAACA | 0.273 ± 0.021
98 | ATTTTCCA | -0.00624 ± 0.023
99 | GGTCGCAC | 0.365 ± 0.046
100 | GAGCTACC | -0.0692 ± 0.038

Row | Sequence | PBM E-score of 8-mer
101 | GCTGTGCC | 0.134 ± 0.06
102 | CCAATAAG | -0.199 ± 0.0037
103 | TGCCCGAA | -0.147 ± 0.15
104 | GAGAAGCC | -0.119 ± 0.042
105 | ACGCCTTA | 0.343 ± 0.028
106 | GTATCCGA | -0.234 ± 0.03
107 | CCACGGAA | -0.0496 ± 0.042
108 | GAAGTCGC | 0.169 ± 0.024
109 | CGTCAGTA | 0.0635 ± 0.0067
110 | AAAACGAG | -0.219 ± 0.0091
111 | GAGGGAGC | -0.0326 ± 0.0046
112 | CCGGCGAG | -0.0522 ± 0.041
113 | AGGTTTAA | -0.0723 ± 0.017
114 | TGATATAA | 0.0954 ± 0.029
115 | ATCCCCTG | -0.187 ± 0.032
116 | ACTGCTTG | -0.041 ± 0.067
117 | ACTACAGA | 0.00247 ± 0.033
118 | ATCGCGCA | 0.151 ± 0.015
119 | GAACACAA | 0.0535 ± 0.085
120 | GTCATCAC | 0.329 ± 0.052
121 | GCCTCTCC | -0.176 ± 0.05
122 | AATATTAG | -0.0409 ± 0.043
123 | ATGCTGAA | -0.205 ± 0.04
124 | AAGCCATC | -0.208 ± 0.04
125 | ATTAGTTA | -0.116 ± 0.11

Row | Sequence | PBM E-score of 8-mer
126 | CAGCCGAC | 0.102 ± 0.058
127 | TCCTTAGA | -0.329 ± 0.023
128 | CACGTCCA | 0.0811 ± 0.029
129 | AGACCTGA | -0.094 ± 0.0078
130 | ATTCAGTG | -0.0251 ± 0.042
131 | AGACTATC | -0.0317 ± 0.0024
132 | TAGGGAGA | -0.082 ± 0.027
133 | AGGCGTGC | 0.236 ± 0.052
134 | ACAGTAGG | -0.00161 ± 0.0019
135 | AGCGCACG | 0.137 ± 0.04
136 | AACACTGA | 0.0941 ± 0.085
137 | GCAGAGCC | -0.0366 ± 0.084
138 | CTATTGCC | -0.113 ± 0.026
139 | AACTCATC | -0.0679 ± 0.032
140 | GGGCTAAC | 0.118 ± 0.018
141 | CGGCGTGC | 0.00958 ± 0.15
142 | AACGGAAG | -0.204 ± 0.043
143 | CCGTTCAA | -0.221 ± 0.035
144 | GTAATCCA | 0.03 ± 0.059
145 | AGAATCAA | -0.137 ± 0.042
146 | CCGAAACC | -0.241 ± 0.037
147 | ACTCCATG | -0.0431 ± 0.038
148 | CACGCTAG | 0.0339 ± 0.053
149 | GTGCTACA | 0.161 ± 0.055
150 | GGATCCCC | -0.0275 ± 0.062

Row | Sequence | PBM E-score of 8-mer
151 | CATCTGCA | -0.207 ± 0.04
152 | CTTGGCCC | -0.1953 ± 0.0016
153 | GTTGCCCA | -0.0881 ± 0.12
154 | AGCTTGTG | 0.178 ± 0.06
155 | TTCGAAAA | -0.282 ± 0.041
156 | TAGCAGAA | -0.146 ± 0.018
157 | ATTTAGCA | 0.138 ± 0.094
158 | AGGATGAG | -0.0633 ± 0.042
159 | ACGTGGAA | -0.0808 ± 0.05
160 | AGGGAGAC | -0.204 ± 0.046
161 | CCTCTGGC | -0.0581 ± 0.017
162 | ATACTCCC | -0.227 ± 0.01
163 | AAGTAGTA | -0.0516 ± 0.042
164 | CGCGAATC | 0.342 ± 0.018
165 | ACCAAGAA | -0.134 ± 0.025
166 | ATGGGGCC | -0.0701 ± 0.0067
167 | AACAGAGA | 0.00356 ± 0.031
168 | CTATGTTC | -0.0945 ± 0.086
169 | AATAGTAT | -0.0104 ± 0.068
170 | CAATGAAG | 0.0998 ± 0.005
171 | CCATCAAC | 0.0151 ± 0.022
172 | GCCAGCGA | 0.164 ± 0.098
